# From PubChem BioAssay AID485364 (National Center for Advancing Translational Sciences (NCATS), 2010)
# Among all 360,000 compounds or so, about 11,000 (3.1%) were called active. Inconclusive means that the source gave no clear call. Such entries were picked first, then a sample of the others. Calls follow the shape of the dose curve; as a rule, active = well fitted inhibition curve with a large enough effect; inconclusive = small, poorly fitted or top-dose-only effect; inactive = no such curve, though single readings can be large or run the other way. No potency is given beside an inconclusive call; the fits are too rough.
# Target: Schistosoma mansoni thioredoxin glutathione reductase (TGR) (UniProt Q962Y6)
# Experiment: qHTS Assay for the Inhibitors of Schistosoma Mansoni Peroxiredoxins; also: nearly all actives have a fitted effect of over 60% in size
# Conditions: purified TGR, DTNB reduction, TNB absorbance 405 nm; activity change, negative = inhibition: at 114 µM (top of the series) unless noted
# In short: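 First, TGR (20 nM dispensed) and NADPH were mixed with compound. Second, a 15 min room-temperature incubation followed. Third, further NADPH and then DTNB were added to start the reaction. Finally, TNB absorbance was monitored kinetically.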
# % is scaled to controls: 0 for no effect and ±100 for the full control effect; potency is read from the fitted curve at half-maximal effect; tags tell the direction and shape of the fitted curve.
Structure (SMILES),Potency,"activity change, negative = inhibition"
COc1ccc(-c2nc(CS(=O)CC(=O)NC3CCCCC3C)c(C)o2)cc1 (stereo unspecified),"inconclusive [inhibitor, full curve]",
CCOC(=O)c1sc(NCC2CCCO2)nc1C (stereo unspecified),,inactive: -13.3%
CCOC(=O)c1c(C)[nH]c(C)c1C(=O)COC(=O)CCOc1ccccc1OC,"inconclusive [inhibitor, single point]",
CCOCC(=O)Nc1nc2ccc(OC)cc2s1,"inconclusive [inhibitor, single point]",
O=Cc1cc2ccccc2nc1SCCCF,,inactive: -8.21%
CCN1C(=O)[C@H]2[C@@H](c3ccc(SC4CCCCC4)c(OC)c3)N3CCCC[C@@]3(C(=O)OC)[C@H]2C1=O,"inconclusive [inhibitor, full curve]",
CCOc1ccccc1-c1cc(C(=O)Nc2ccc(C(=O)O)cc2)c2ccccc2n1,,inactive: 13.3%
CCC1CCCCN1S(=O)(=O)c1ccc(S(=O)(=O)N2CCN(S(=O)(=O)CC)CC2)cc1 (stereo unspecified),"inconclusive [inhibitor, single point]",
COc1ccc(NC(=S)NCCCN2CCOCC2)cc1,"inconclusive [inhibitor, partial curve, poor fit]",
CC(C)[C@H](N)c1nnc(SC/C=C/c2ccccc2)o1,"inconclusive [inhibitor, partial curve]",
COc1cc2c(cc1OC)CN(C1CC(=O)N(c3c(C)cccc3C)C1=O)CC2 (stereo unspecified),"inconclusive [inhibitor, partial curve]",
CC(C)Cc1nc(N2CCOCC2)c(C#N)c2c1CCC2,"inconclusive [inhibitor, single point]",
O=C1c2ccccc2C(=O)N1OS(=O)(=O)c1ccccc1,active: 1.26 µM,
NS(=O)(=O)c1ccc(-c2ccc(/C=N/NC(=O)c3ccccc3O)o2)cc1,,inactive: -15.8%
COc1cc(OC)c(S(=O)(=O)N2CCCCC2)cc1S(=O)(=O)N1CCCCC1,"inconclusive [inhibitor, single point]",
CC(=O)c1cccc(NC(=S)NC(=O)c2ccc(C)cc2Cl)c1,"inconclusive [inhibitor, full curve]",
CC1Oc2ccccc2C=C1/C=C1/SC(N2CCOCC2)=NC1=O (stereo unspecified),"inconclusive [inhibitor, full curve]",
O=S(=O)(/N=C(/Sc1ccccc1)c1ccccc1)c1ccccc1,active: 1.78 µM,
Cc1cc(C)nc(Nc2ncc(O)n2-c2ccc(C)c(C)c2)n1,,inactive: 21.8%
COc1cccc(/C=N/n2c(C)nc3ccccc32)c1OC,"inconclusive [inhibitor, single point]",
O=C(NCCc1ccccc1)c1ccc(CS(=O)(=O)Cc2ccccc2Cl)o1,active: 50.1 µM,
Cc1ccc(CNC(=O)C2CCCN(S(=O)(=O)c3cn(C)cn3)C2)cc1 (stereo unspecified),,inactive: 2.69%
O=C(Cn1c(=O)c(C(F)(F)F)nc2ccccc21)Nc1cccc(Br)c1,,inactive: 7.47%
CN(C)c1ccc(C(=O)N/N=C/C23CC[C@@H](O)CC2(O)CC[C@@H]2[C@@H]3CCC3(C)C(C4=CC(=O)OC4)CCC23O)cc1 (stereo partly specified),"inconclusive [inhibitor, partial curve]",

Structure (SMILES),Potency,"activity change, negative = inhibition"
Cc1ccc(CNC(=O)CCS(=O)(=O)c2ccc(Br)s2)o1,active: 10 µM,
O=C(CCCCCn1c(=O)[nH]c2ccsc2c1=O)N1CCN(C2CCCCC2)CC1,"inconclusive [inhibitor, single point]",
COc1ccc(C)cc1NC(=O)CSc1nnc(COc2ccccc2)n1Cc1ccco1,"inconclusive [inhibitor, partial curve]",
COC(=O)C1CCN(C(=O)c2ccc(OC3CCN(Cc4ccccn4)CC3)cc2)CC1,"inconclusive [inhibitor, partial curve]",
C=C1C[C@@H]2[C@H](CC[C@]3(C)C(=O)CC[C@@H]23)[C@@]2(C)C=CC(=O)C=C12,"inconclusive [inhibitor, partial curve]",
CCCOc1ccc(NC(=O)CC2C(=O)N(c3ccc(OCC)cc3)C(=S)N2C2CC2)cc1 (stereo unspecified),"inconclusive [inhibitor, partial curve, poor fit]",
Cc1ccc(NC(=O)CN2C(=O)N/C(=C/c3cccn3-c3ccc(C(=O)O)cc3)C2=O)cc1,"inconclusive [inhibitor, partial curve]",
O=C(OCCCc1cc2ccccc2c(=O)o1)c1ccccc1C(F)(F)F,active: 11.2 µM,
CCOC(=O)C1CCCN(c2c(N3CCN(C)CC3)c(=O)c2=O)C1 (stereo unspecified),active: 5.62 µM,
CC1C(=O)Nc2ccc(S(=O)(=O)N3CCN(c4cccc(Cl)c4)CC3)cc2NC1=O (stereo unspecified),"inconclusive [inhibitor, partial curve]",
Cc1n[nH]c(=O)c2c(NC(=O)CSc3nnnn3-c3ccc(O)cc3)oc(C)c12,"inconclusive [inhibitor, partial curve]",
Cc1cccc(CS(=O)(=O)Cc2ccc(C(=O)NCc3cccnc3)o2)c1,"inconclusive [inhibitor, partial curve]",
COc1ccc(S(=O)(=O)Cc2ccc(C(=O)N3CCOCC3)o2)cc1,active: 28.2 µM,
O=C(NCc1ccco1)c1c(F)c(F)c(F)c(C(=O)NCc2ccco2)c1F,active: 44.7 µM,
COc1cc(C2Nc3ccc4ncccc4c3C3=C2C(=O)CCC3)cc(OC)c1OC (stereo unspecified),,inactive: 0%
CC(=O)Nc1cccc(C(=O)N(Cc2ccccc2)Cc2ccccc2)c1,,inactive: 0%
CC1CCCc2sc3nc(NCc4ccco4)n4ncnc4c3c21 (stereo unspecified),"inconclusive [inhibitor, partial curve]",
Cc1ccc(C(=O)OCC(=O)NCc2ccco2)s1,"inconclusive [inhibitor, partial curve]",
O=C(COC(=O)c1ccc(S(=O)(=O)N2CCCCC2)cc1)NCc1ccco1,"inconclusive [inhibitor, partial curve]",
O=C(Oc1cc(Cl)ccc1Cl)C1=CC=CN2CCS(=O)(=O)N=C12,"inconclusive [inhibitor, partial curve]",
COc1cc2[nH]c(=O)n(Cc3ccc(C(=O)N4CCN(c5cc(Cl)ccc5C)CC4)cc3)c(=O)c2cc1OC,,inactive: -19.6%
O=C(NCc1ccccc1F)C1CCCN(S(=O)(=O)c2ccc(-n3cnnn3)cc2)C1 (stereo unspecified),,inactive: -8.32%
CC(C)(C)c1[nH]nc2c1C(c1ccncc1)C(C#N)=C(N)O2 (stereo unspecified),"inconclusive [inhibitor, single point]",
COC(=O)C1=[N+]([O-])OC(C(=O)OC)C1c1c[nH]c2ccccc12 (stereo unspecified),"inconclusive [inhibitor, partial curve, poor fit]",

Structure (SMILES),Potency,"activity change, negative = inhibition"
Cc1nn(-c2ccccc2)c(N)c1N=Nc1ccccc1,,inactive: 0%
Cc1ccc(NC(=O)C2CC(=O)N(Cc3ccco3)C2)cc1 (stereo unspecified),"inconclusive [inhibitor, partial curve]",
CCCCCCC1(C)NC(=S)N(c2ccccc2)N1 (stereo unspecified),,inactive: -2.46%
S=C(NCc1ccco1)Nc1ccc2c(c1)OCCO2,"inconclusive [inhibitor, partial curve]",
C=CCOc1ccc(Br)cc1/C=C1/SC(=Nc2ccc(C(=O)O)cc2)NC1=O,"inconclusive [inhibitor, partial curve]",
O=C(NCc1cccnc1)Nc1ccccc1,,inactive: 0%
Cc1ccnc(NS(=O)(=O)c2ccc(NC(=O)CC(C)c3ccccc3)cc2)n1 (stereo unspecified),,inactive: 0.51%
CCOC(=O)CC1CCCCN1C(=O)c1ccc2nc(CCOC)oc2c1 (stereo unspecified),,inactive: 0.158%
O=C1/C(=C/c2ccncc2)CCC/C1=C\c1ccncc1,active: 11.2 µM,
Cc1cc(C(=O)N2CCCC(CO)(Cc3ccc(F)cc3)C2)c(C)o1 (stereo unspecified),"inconclusive [inhibitor, partial curve]",
COc1ccc(CN(C)C(=O)c2ccc(Cl)c(S(=O)(=O)NCc3cccnc3)c2)cc1F,"inconclusive [inhibitor, partial curve]",
Cc1cc(C)c2cc(C(=O)Nc3ccc(C)c(F)c3)[nH]c2c1,,inactive: -7.75%
COCc1cccc(N2C(=O)CC(C3C=C(C)C4C(=O)N(c5cccc(COC)c5)C(=O)C4C3)C2=O)c1 (stereo unspecified),,inactive: 0.28%
O=C(Nc1ccc2oc(=O)ccc2c1)c1ccc(-c2ccccc2[N+](=O)[O-])o1,"inconclusive [inhibitor, partial curve]",
O=C1CN(C(=S)Nc2ccccc2Cl)CCN1,"inconclusive [inhibitor, partial curve]",
CC(C)OCCCNC(=O)c1sc(=S)n(C)c1N,"inconclusive [inhibitor, full curve, poor fit]",
Cc1cc(C)cc(N(CC(=O)NCCSCc2ccco2)S(C)(=O)=O)c1,"inconclusive [inhibitor, full curve]",
COCCn1c(-c2ccc3ccccc3c2)nc2c1c(=O)[nH]c(=O)n2CC(C)C,,inactive: -1.88%
C/C(=N/NC(=O)c1ccccc1)C(=O)O,"inconclusive [inhibitor, partial curve]",
CCCCN(CCCC)CCCNC(=O)c1ccc2nc(-c3ccccc3NC(C)=O)c(=O)[nH]c2c1,"inconclusive [inhibitor, partial curve]",
Cc1ccc(C(=O)CSc2nnc(COc3ccc(C#N)cc3)n2-c2ccccc2)cc1,,inactive: -2.45%
Cc1[nH]c2ccccc2c1C(=O)COC(=O)Cn1c(C(F)(F)F)nc2ccccc21,,inactive: -8.9%
CC(=O)Oc1ccc(C(=O)Cc2ccc3ccccc3n2)c(O)c1C,,inactive: 2.84%
